Data from PubChem BioAssay AID1347044 (National Center for Advancing Translational Sciences (NCATS), 2019).
The list shows a part of the results. Shown are side measurements of this screen, not its main read-out; they come without a call. The list favours compounds with an active or inconclusive main result. The note in brackets gives the kind of curve behind each potency; many fits are weak.

Test: Natriuretic polypeptide receptor (hNpr1) antagonism - Confirmation; note: nearly all actives have a fitted effect of over 70% in size
Conditions: HEK293 hNpr1 cGMP GloSensor luminescence, ANP-stimulated; measured here: HEK-hNpr1 cytotoxicity, CellTiter-Glo
Method in brief: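 HEK293 cells co-expressing hNpr1 and GloSensor cGMP sensor preloaded 2 h with 2% GloSensor reagent, compounds added 30 min at room temperature, then 0.1 nM hNppA for 20 min; luminescence read before and after agonist. Cytotoxicity counter-screen run.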
Tags give direction and shape of the fitted curve.

| SMILES | CC50 |
| --- | --- |
| COc1ccc(C(=O)N2CCC3(C2)C(=O)N(Cc2ccccc2)c2ccccc23)cc1 (configuration not stated) | 19.3 µM [falling, partial curve] |
| O=C(Nc1ccc(F)cc1)C1CCN(c2cc(C(F)(F)F)ncn2)CC1 | 19.3 µM [falling, partial curve] |
| O=C(C1CC1)N1CC(Oc2ccc(-c3noc(C4CCOCC4)n3)cc2)C1 | 15.3 µM [falling, partial curve] |
| CCc1noc(CC2CCOC3(CCN(S(=O)(=O)c4cccc(OC)c4)CC3)C2)n1 (configuration not stated) | 24.3 µM [falling, partial curve] |
| COc1ccc(CC(=O)NC2CCCN(c3cc(-c4ccc(Cl)cc4)[nH]n3)C2)cc1OC (configuration not stated) | 27.3 µM [falling, partial curve] |
| O=C1CC2(CCN(C(=O)c3ccc(Cl)cc3)CC2)Oc2ccccc2N1 | 19.3 µM [falling, partial curve] |
| Cc1nn2c(c1-c1ccccc1-c1ccccc1)N(CC1CC1)CCC2 | 39.6 µM [falling, single point] |
| COc1ccc(-c2noc(CC3CCN(C(=O)Cc4ccccc4OC)CC3)n2)cc1 | 21.7 µM [falling, partial curve] |
| COc1ccc(Cl)cc1-c1ccc2c(n1)CN(CCOc1ccccc1)C(=O)CO2 | 55.9 µM [falling, single point] |
| COc1nccc(N2CCC(CC(=O)NCc3ccccc3F)CC2)n1 | 34.3 µM [falling, single point] |
| COC(=O)c1cccc(NC(=O)CCNc2c(C)nc3cnccn23)c1 | 19.3 µM [falling, partial curve, poor fit] |
| O=S(=O)(c1ccc(Cl)cc1)N1CCOC[C@H](Oc2ccc(C(F)(F)F)cc2)C1 | 34.3 µM [falling, single point] |
| O=C(NC1CCCCC1)O[C@@H]1CO[C@H]2[C@@H]1OC[C@@H]2Nc1nccc(-c2cccs2)n1 | 7.03 µM [falling, full curve] |
| CCN(Cc1noc(C2CCC2)n1)C(=O)C(C)Oc1ccc2ccccc2c1 (configuration not stated) | 21.7 µM [falling, partial curve] |
| N#Cc1cccc(CN[C@H]2CO[C@H]3[C@@H]2OC[C@H]3OC(=O)Nc2ccc(Oc3ccccc3)cc2)c1 | 21.7 µM [falling, partial curve] |
| CC(=O)Oc1ccccc1C(=O)Nc1ccc2c(c1)CN(CCc1ccc(F)cc1)C(=O)C(C)O2 (configuration not stated) | 43.2 µM [falling, single point] |
| O=c1[nH]c2ccccc2n1C1CCN(c2nccc(-c3cccnc3)n2)CC1 | 19.3 µM [falling, partial curve] |
| COCc1nc(-c2ccc(OC3CN(C(=O)NC(C)C)C3)cc2)no1 | 19.3 µM [falling, partial curve] |
| COc1cc(NC(=O)Cn2c(N3CCC(C)CC3)nc(C)cc2=O)cc(OC)c1 | 13.7 µM [falling, partial curve] |
| Cc1ccc(C(=O)N[C@H]2CO[C@H]3[C@@H]2OC[C@@H]3Nc2nccc(-c3ccc(-c4ccccc4)cc3)n2)cc1 | 17.2 µM [falling, partial curve] |
| CCOc1ccc(C(=O)N2CCC(Cc3nc(-c4cccc(OC)c4)no3)CC2)cc1 | 15.3 µM [falling, partial curve] |

| SMILES | CC50 |
| --- | --- |
| Cc1nc(-c2ccncc2)ncc1C(C)Nc1ncnc(C)c1C (configuration not stated) | 13.7 µM [falling, partial curve] |
| CCCCOc1ccc(C(=O)N2CCC(Cc3nc(-c4cnccn4)no3)CC2)cc1 | 24.3 µM [falling, single point] |
| CC(C)Cc1ccc(S(=O)(=O)N(C)CC2CCOCC2)cc1 | 15.3 µM [falling, partial curve] |
| c1ccc(-n2cc(CN3CCC(Oc4ccncc4)CC3)nn2)cc1 | 38.5 µM [falling, single point] |
| CCOc1ccc(CC(=O)N2CCC(Cc3nc(-c4ccccc4)no3)CC2)cc1 | 15.3 µM [falling, partial curve] |
| Cc1ccccc1-c1cnc2[nH]cc(CC(=O)NCc3ccccc3)c2c1 | 25 µM [falling, partial curve] |
| O=C(Cc1c[nH]c2ncc(-c3ccccc3F)cc12)N1CCOCC1 | 31.4 µM [falling, partial curve] |
| COc1ccc(-c2ccnc(N[C@H]3CO[C@H]4[C@@H]3OC[C@H]4OC(=O)Nc3cccc(C(C)=O)c3)n2)cc1 | 21.7 µM [falling, partial curve] |
| CC(C)c1ccc(CN2CCc3ncc(C(=O)NCc4ccccc4)n3CC2)cc1 | 35.3 µM [falling, partial curve] |
| O=C(NCC1CC1)c1nc2c(o1)CCN(Cc1cccc(F)c1F)CC2 | 22.2 µM [falling, partial curve] |
| O=C(CC1CCCCC1)N1CCC(c2noc(COc3ccc(F)cc3)n2)CC1 | 19.3 µM [falling, partial curve] |
| COc1cccc(-c2noc(CC3CCN(C(=O)c4ccc(F)c(F)c4)CC3)n2)c1 | 10.9 µM [falling, partial curve] |
| C=CCNC(=O)c1coc(COc2ccc3ccc(OC)cc3c2)n1 | 24.3 µM [falling, partial curve] |
| O=C(N[C@H]1CO[C@H]2[C@@H]1OC[C@@H]2Nc1nccc(-c2ccc(-c3ccccc3)cc2)n1)C1CCCCC1 | 30.6 µM [falling, single point] |
| COc1ccc(Cl)cc1NC(=O)Cn1c(N2CCC(C)CC2)nc(C)cc1=O | 19.3 µM [falling, partial curve] |
| N#Cc1ccc(CN2CCC3(CC2)CC(c2cccnc2)=NO3)cc1 | 31.4 µM [falling, partial curve] |
| COc1ccc(C(=O)Nc2ccc3c(c2)CN(Cc2ccc(F)cc2)C(=O)C(C)O3)c(OC)c1 (configuration not stated) | 43.2 µM [falling, single point] |
| CC(=O)Nc1ccc(C(=O)N2CCC3(CC2)N=C(c2ccc(Br)cc2)NO3)cc1 | 10.9 µM [falling, partial curve] |
| COc1nccc(N2CCC(CC(=O)N(C)CCCc3c(C)nn(C)c3C)CC2)n1 | 19.3 µM [falling, partial curve] |
| COc1ccc(CCCNc2cc(C3CC(O)C3)ncn2)cc1 (configuration not stated) | 15.3 µM [falling, partial curve] |
| O=C(NC1CCOCC1)c1ccc2c(c1)OCCN(c1cccc(OC(F)(F)F)c1)C2 | 49.8 µM [falling, single point] |

| SMILES | CC50 |
| --- | --- |
| Cc1n[nH]c(C)c1Cc1ccc(C(=O)N2CCC(CCOc3ccc(F)cc3)C2)o1 (configuration not stated) | 24.3 µM [falling, partial curve] |
| COc1ccc(-c2noc(CC3CCN(C(=O)C4CCN(C(=O)c5ccccc5)CC4)CC3)n2)cc1 | 21.7 µM [falling, partial curve] |
| CC(C)c1noc(-c2cn(C3CCN(C(=O)c4ccc(N(C)C)cc4)C3)nn2)n1 (configuration not stated) | 24.3 µM [falling, partial curve] |
| FC(F)(F)c1ccc(N2C3CCC2CN(Cc2cccs2)C3)cc1 | 27 µM [falling, partial curve] |
| COc1ccc(OCC(=O)N2CCC(Cc3nc(-c4ccc(F)cc4)no3)CC2)cc1 | 10.9 µM [falling, partial curve] |
| COc1cc(OC)c(NC(=O)Cn2c(N(C)Cc3ccccc3)nc(C)cc2=O)cc1Cl | 19.3 µM [falling, partial curve] |
| COc1ccc(C(=O)N2CCC3(CC2)N=C(c2cccc(Br)c2)NO3)cc1F | 24.3 µM [falling, single point] |
| CC(C)c1nncn1C1CCN(S(=O)(=O)c2cccc(Br)c2)CC1 | 30.6 µM [falling, single point] |
| COc1ccc(C(=O)N2CCC(Cc3nc(-c4ccc(F)cc4)no3)CC2)c(C)c1 | 1.93 µM [falling, full curve] |
| COc1ccc(NC(=O)Cn2c(N(C)Cc3ccccc3)nc(C)cc2=O)cc1Cl | 10.9 µM [falling, partial curve] |
| CCc1ccc(C(=O)N2CCN(C(=O)c3nnn4c3COC(c3ccc(C)cc3)C4)CC2)cc1 (configuration not stated) | 19.3 µM [falling, partial curve] |
| O=C(c1cccc(Cl)c1)N1CCN(C(=O)c2nnn3c2COC(c2ccc(F)cc2)C3)CC1 (configuration not stated) | 21.7 µM [falling, partial curve] |
| CC1=NS(=O)(=O)N(C)C=C1C(=O)OCc1nc(-c2ccc(C(F)(F)F)cc2)no1 | 17.2 µM [falling, partial curve] |
| CC(C)c1noc(-c2cn(C3CCN(C(=O)c4ccc(Cl)s4)C3)nn2)n1 (configuration not stated) | 17.2 µM [falling, partial curve] |
| CN(Cc1ccc(F)cc1)c1ccc2ncc(Nc3ccnc(N4CCOCC4)c3)n2n1 | 25 µM [falling, partial curve] |
| Cc1nc(N2CCC(C(=O)Nc3ccc(F)c(Cl)c3)CC2)cc(C(F)(F)F)n1 | 24.3 µM [falling, partial curve] |
| COc1ccc(S(=O)(=O)NC[C@H]2COCc3nc4cc(C)ccc4n32)cc1 | 28 µM [falling, partial curve] |
| O=C(Cc1ccc(Br)cc1)N1CCCN(c2cc(-c3ccc(F)cc3)[nH]n2)CC1 | 30.6 µM [falling, single point] |
| COc1ccc(CC(=O)N2CCC(Cc3nc(-c4ccc(F)cc4)no3)CC2)cc1 | 7.69 µM [falling, full curve] |
| COc1ccc([S+](=O)([O-])N2CCC3(CC2)OCCN(CC2CC2)C3=O)cc1 | 28 µM [falling, partial curve] |
